# Data: PubChem BioAssay AID686979 (National Center for Advancing Translational Sciences (NCATS), 2013)
# Out of some 420,000 compounds screened, about 50,000 (12%) were called active. The inconclusive results got no clear call from the source; some entries with a clear call stand among them for comparison. Calls follow the shape of the dose curve; as a rule, active = well fitted inhibition curve with a large enough effect; inconclusive = small, poorly fitted or top-dose-only effect; inactive = flat fitted curve, though single readings scatter. No potency is given beside an inconclusive call; the fits are too rough.
# Assay: qHTS for Inhibitors of human tyrosyl-DNA phosphodiesterase 1 (TDP1): qHTS in cells in presence of CPT; also: nearly all actives have a fitted effect of over 55% in size
# Details: chicken DT40 Tdp1-/-;hTDP1 cells + 20 nM CPT, ATP luminescence, 48 h; activity change, negative = growth inhibition: at 46.2 µM (top of the series) unless noted
# In short: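 Chicken DT40 Tdp1-/- cells stably complemented with human TDP1 were seeded at 400 cells/well in medium containing 20 nM camptothecin, exposed to pin-transferred compounds, and grown at 37 °C for at least 48 hr. Viability was read as ATP luminescence.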
# % is scaled to controls: 0 for no effect and ±100 for the full control effect; potency is read from the fitted curve at half-maximal effect; tags tell the direction and shape of the fitted curve.
SMILES,Potency,"activity change, negative = growth inhibition"
CCOCCc1nnc(NC(=O)C(=O)c2cc(C)n(-c3ccc(C)c(C)c3)c2C)s1,"inconclusive [inhibitor, single point]",
CCCCNc1nc2c(S(=O)(=O)c3ccc(C)cc3)nnn2c2ccsc12,,inactive: -4.61%
C/C(=C\c1ccccc1)CN1CCN(c2cccc(Cl)c2)CC1,,inactive: -2.39%
C[C@@H]1O[C@@H](O[C@H]2[C@H](Oc3cc(O)c4c(c3)OC(c3ccc(O)cc3)CC4=O)O[C@H](CO)[C@@H](O)[C@@H]2O)[C@H](O)[C@H](O)[C@H]1O (stereo not given in full),,inactive: 1.19%
CC(C)(C)c1nn(-c2ccccc2)c2[nH]c(=O)c(C=O)cc12,"inconclusive [inhibitor, single point]",
O=C(Nc1ccc(Cl)cc1)c1nc[nH]c1C(=O)NCCN(CCNC(=O)c1[nH]cnc1C(=O)Nc1ccc(Cl)cc1)CCNC(=O)c1[nH]cnc1C(=O)Nc1ccc(Cl)cc1,"inconclusive [inhibitor, single point]",
Cc1ccc(-n2nc3c(c2NC(=O)c2ccco2)CS(=O)(=O)C3)cc1C,,inactive: -5.52%
CCc1nc2ccccc2n1CC(=O)N1CCN(Cc2ccccc2)CC1,"inconclusive [inhibitor, partial curve]",
COC(=O)c1ccc2nc(-c3ccc(C)cc3)c(Cc3cccc(F)c3)n2c1,active: 20.6 µM,
O=C(CSc1nnc(C2COc3ccccc3O2)o1)Nc1nccs1 (stereo not given),"inconclusive [inhibitor, full curve]",
Cc1ccc(NC(=O)CN2CCC(Cc3ccccc3)CC2)cc1S(=O)(=O)N(C)C,"inconclusive [inhibitor, single point]",
CCc1nn(CC(=O)N2CC(C)CC(C)C2)c(=O)c2cccn12 (stereo not given),,inactive: 5.25%
Cc1cc(Cl)ccc1OCCCC(=O)N1CCN(C(=O)c2ccco2)CC1,"inconclusive [inhibitor, single point]",
C=CCc1ccc(OCC(O)CN2CCCCC2C)c(OC)c1 (stereo not given),"inconclusive [inhibitor, single point]",
Cc1ccc(S(=O)(=O)N2CC(O)CC2C(=O)OCC(=O)Nc2ccc([N+](=O)[O-])cc2C(F)(F)F)cc1C (stereo not given),"inconclusive [inhibitor, partial curve, poor fit]",
CC(=O)Nc1cccc(-c2ccnc3c2CC(C(=O)NCCc2ccccc2)O3)c1 (stereo not given),active: 4.61 µM,
O=C(NCC(F)(F)F)C1C(=O)Nc2ccccc2C(=O)N1Cc1ccccc1 (stereo not given),,inactive: -0.139%
O=C(COc1ccc(F)cc1Br)NCc1nnc2ccccn12,,inactive: -16.5%
O=C(NCC(c1cccs1)S(=O)(=O)c1cccs1)c1ccc(F)c(F)c1 (stereo not given),"inconclusive [inhibitor, partial curve]",
CCOc1ccc(CCNC(=O)c2ccc3c(c2)N(Cc2ccc(F)cc2)CCS3)cc1,"inconclusive [inhibitor, single point]",
O=C(CCN=C1NS(=O)(=O)c2ccccc21)Nc1ccc(Cl)cc1F,,inactive: -16.6%
COc1ccccc1CNC(=O)CSc1nc(-c2ccc(OC)c(OC)c2)cc(C(F)(F)F)n1,"inconclusive [inhibitor, single point]",
CC(Oc1ccc(F)cc1)C(=O)Oc1ccc(N(C)S(=O)(=O)c2ccccc2)cc1 (stereo not given),,inactive: -22.8%

SMILES,Potency,"activity change, negative = growth inhibition"
CC(OC(=O)c1ccc(O)cc1)C(=O)Nc1nc(-c2ccccc2)cs1 (stereo not given),"inconclusive [inhibitor, single point]",
CC(C)(C)c1ccc(NNC(=O)C2CCC2)cc1,,inactive: -22.3%
CN(Cc1nc(-c2ccccc2)no1)C1CCOCC1,,inactive: -3.34%
COCc1nnc(NC(=O)c2cccc(NC(=O)c3ccccc3)c2)s1,"inconclusive [inhibitor, single point]",
CCC(C)c1ccc(O[C@@H]2O[C@H](CO)[C@@H](O)[C@H](O)[C@H]2NC(C)=O)cc1 (stereo not given in full),,inactive: -5.25% [at 9.04 µM]
COC(=O)c1sccc1S(=O)(=O)N(CC(=O)Nc1cc(C)ccc1C)c1ccc(C)c(C)c1,active: 20.6 µM,
CCC(C)Sc1ccc([C@@H]2[C@H]3C(=O)N(CC)C(=O)[C@H]3[C@]3(C(=O)OC)CCCN23)cc1OC (stereo not given in full),active: 23.1 µM,
COCCN1CCN(C(=O)c2ccc3nc(Cc4ccc(OC)c(OC)c4)oc3c2)CC1,active: 11.6 µM,
COc1ccc(C(=O)Nc2nnc(-c3ccccc3)o2)cc1OC,"inconclusive [inhibitor, single point]",
CCC1(C)NC(=O)N(CC(=O)c2cc(C)n(C3CC3)c2C)C1=O (stereo not given),"inconclusive [inhibitor, single point]",
Cc1ccc(OCC(=O)N(C)CC(=O)Nc2cccc(F)c2)cc1,,inactive: 6.39%
Cc1ccc(CS/C(Nc2ccccc2C)=C(\C#N)C(=O)NCc2ccco2)c(C)c1,"inconclusive [inhibitor, single point]",
Cc1ccc(CNC(=O)c2ccc3c(c2)NC(=O)C(N2CCOCC2)S3)cc1 (stereo not given),"inconclusive [inhibitor, partial curve]",
CC(=O)NC(CC(=O)Nc1cc(Cl)ccc1-n1cncn1)c1ccccc1 (stereo not given),,inactive: -2.75%
O=S(=O)(c1ccc2nc(-c3ccccc3)[nH]c2c1)N1CCN(c2ccc(Cl)cc2)CC1,"inconclusive [inhibitor, single point]",
Cc1cccc(N2CCN(C(=O)c3ccc4c(c3)OCCO4)CC2)c1C,,inconclusive: -32.4% [inhibitor]
CCn1c(SCC(=O)Nc2nc(-c3ccccc3)cs2)nnc1-c1ccccc1O,"inconclusive [inhibitor, single point]",
CCOc1ncccc1C(=O)NCCc1ccc(OC)cc1,active: 18.4 µM,
Cc1ccc(C(=O)N/N=C2\CCSC2)cc1[N+](=O)[O-],,inactive: -17%
COC(=O)C1=C(C)NC(C)=C(C(=O)OCCSc2ccccc2)[C@@H]1C,"inconclusive [inhibitor, single point]",
Cc1occc1C(=O)N/N=C/c1c(O)ccc2ccccc12,active: 0.651 µM,
O=C(COC(=O)c1ccco1)Nc1ccccc1,,inactive: 0.487%
